Test results from article PMC4336329 (PLoS ONE, 2015).
The campaign covered roughly 310,000 compounds. About 2,200 (0.71%) showed an effect of 50% or more. Effects have a minus sign here. This is one part of the list.

target: human ether-à-go-go-related gene (hERG) potassium channel (human, UniProt Q12809); test: primary screen, population patch clamp on CHO cells stably expressing hERG
Sequence (Q12809 whole entry, looked up): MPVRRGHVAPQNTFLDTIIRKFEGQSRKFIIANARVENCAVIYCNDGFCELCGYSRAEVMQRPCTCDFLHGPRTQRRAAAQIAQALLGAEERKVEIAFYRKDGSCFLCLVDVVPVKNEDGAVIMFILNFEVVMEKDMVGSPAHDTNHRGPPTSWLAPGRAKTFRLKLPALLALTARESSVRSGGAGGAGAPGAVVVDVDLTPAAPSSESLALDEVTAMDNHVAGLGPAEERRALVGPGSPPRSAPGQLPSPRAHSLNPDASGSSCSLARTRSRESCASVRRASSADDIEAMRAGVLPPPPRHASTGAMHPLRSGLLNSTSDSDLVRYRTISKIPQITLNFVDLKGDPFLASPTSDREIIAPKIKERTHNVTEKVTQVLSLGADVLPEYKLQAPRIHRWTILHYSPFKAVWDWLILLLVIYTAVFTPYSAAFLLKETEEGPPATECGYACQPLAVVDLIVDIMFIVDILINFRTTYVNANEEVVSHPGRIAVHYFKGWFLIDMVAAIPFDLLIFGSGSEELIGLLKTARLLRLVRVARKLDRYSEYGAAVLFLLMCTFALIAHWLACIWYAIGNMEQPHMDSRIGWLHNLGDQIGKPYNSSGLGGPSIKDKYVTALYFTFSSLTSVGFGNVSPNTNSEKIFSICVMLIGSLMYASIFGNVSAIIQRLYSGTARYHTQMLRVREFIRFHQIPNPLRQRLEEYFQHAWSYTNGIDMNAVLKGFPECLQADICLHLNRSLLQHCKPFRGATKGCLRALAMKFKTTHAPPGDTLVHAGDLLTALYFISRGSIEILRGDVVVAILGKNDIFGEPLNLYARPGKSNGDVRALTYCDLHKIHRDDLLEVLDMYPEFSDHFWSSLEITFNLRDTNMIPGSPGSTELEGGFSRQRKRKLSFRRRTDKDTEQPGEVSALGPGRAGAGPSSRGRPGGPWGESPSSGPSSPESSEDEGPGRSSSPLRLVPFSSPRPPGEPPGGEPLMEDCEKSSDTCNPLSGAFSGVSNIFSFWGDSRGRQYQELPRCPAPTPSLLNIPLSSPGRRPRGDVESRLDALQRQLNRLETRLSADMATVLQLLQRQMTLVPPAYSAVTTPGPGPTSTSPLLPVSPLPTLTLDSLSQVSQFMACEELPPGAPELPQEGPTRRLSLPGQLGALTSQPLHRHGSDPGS

Compound | hERG current change (%, negative = inhibition) at 1uM [%]
O=C(COc1ccc(S(=O)(=O)N2CCCC2)cc1Cl)NC1CCCC1 | -9.44
Nc1nc(SCc2ccc(F)cc2)n[nH]1 | 16.6
CCOCCCNC(=O)c1ccc(N2CC3CC(C2)c2cccc(=O)n2C3)c(NC(=O)Nc2cccc(OC)c2)c1 (centres unmarked) | 8.4
CCOC(=O)C1CCCN(Cc2cc(=O)oc3cc(C)ccc23)C1 (centres unmarked) | 6.79
CCc1ccc(N2CC(C(=O)Nc3ccc(S(=O)(=O)NCC4CCCO4)cc3)CC2=O)cc1 (centres unmarked) | 13.2
CCOC(=O)c1[nH]c(C)c(/C(O)=C2\C(=O)C(=O)N(CCCn3ccnc3)C2c2ccncc2)c1C (centres unmarked) | 12.5
COc1ccc(C(=O)c2ccc(N3CCN(C(=O)c4ccc(F)cc4)CC3)c(F)c2)cc1Br | 2.88
CSCC(=O)NCC1(N(C)Cc2ccccc2)Cc2ccccc2C1 | 13.5
Cc1csc(NC(=O)CSc2nnc(-c3ccoc3C)n2Cc2ccco2)n1 | -78.4
O=C(O)c1csc(-c2cccc(Cl)c2)n1 | 14.6
Cc1cc(C)n(C(=O)CN2C(=O)COc3ccccc32)n1 | 19.8
ONC(=Nc1ccccc1)c1ccccc1Cl | -1.43
COC(=O)/C=C1\S/C(=N/N=C/c2ccc(Cl)cc2)NC1=O | 15.6
Cc1c(C(=O)NC2CCCCC2)sc2ncnc(N3CCN(c4ccccc4)CC3)c12 | 15.3
CN(Cc1cccs1)C(=O)COc1cccc(-n2cnnn2)c1 | 0.548
C#CCOCCOCCOCCNc1nc(N2CCN(C(=O)C([C@@H](C)CC)n3cc(C(N)COC(=O)C(F)(F)F)nn3)CC2)nc(N2CCN(C(=O)C([C@@H](C)CC)n3cc(C(N)CC(C)C)nn3)CC2)n1.Cl (some centres unmarked) | 18.2
COc1ccccc1Nc1nc(N)nc(CSC(=S)N2CCCCC2C)n1 (centres unmarked) | 9.94
O=C(CCC1CCN(Cc2ccccc2Cl)CC1)NC1CC1 | -4.25
O=C(Nc1cc(Cl)ccc1F)C1=COCCO1 | 14
Cc1ccccc1CN1CCN(C/C=C/c2ccccc2)CC1 | -0.571
Cc1cnc(C(=O)OCC(=O)c2ccc(C3CCCCC3)cc2)cn1 | 8.59
Cc1cc(Nc2cc(F)ccc2C)n2nc(C)nc2n1 | 8.63
Fc1cccc(-c2cc3nc(-c4ccccc4)cc(N4CCC5(CC4)OCCO5)n3n2)c1 | 5.92

Compound | hERG current change (%, negative = inhibition) at 1uM [%]
CSc1ccc(CNC2CN3CCC2CC3)cc1.Cl (centres unmarked) | 9.25
CSC1=NCCN1C(=O)c1c(-c2ccccc2Cl)noc1C | 8.82
CCOC(=O)C(NC(C)=O)C(=O)Nc1ccc(OC)cc1 (centres unmarked) | 10.9
COC(=O)Nc1ccc(S(=O)(=O)Nc2ccc(C(=O)O)cc2)cc1 | -0.235
O=C(COC(=O)CCc1c[nH]c2ccccc12)NC(c1ccccc1)c1ccccc1 | 4.83
CC(C)N1CCN(Cc2ccc(OCc3ccccc3)cc2)CC1CCO (centres unmarked) | 0.0763
Cc1ccc(C)c(-c2cc(C(=O)Nc3cccnc3)c3ccccc3n2)c1 | -24.6
CCOC(=O)C(Sc1cc(C)nc(N)n1)C(C)=O (centres unmarked) | 8.11
NC(=O)Nc1ccc(Oc2c(F)c(F)c(F)c(F)c2F)cc1 | 6.61
CC(C)(C)CC(C)(C)N=C1NS(=O)(=O)c2cc([N+](=O)[O-])ccc21 | 9.84
C=CCn1c(SCC(=O)NCC2CCCO2)nnc1-c1ccccc1 (centres unmarked) | 6.11
CC1C(=NO)C(C)C(c2ccc(N(C)C)cc2)NC1c1ccc(N(C)C)cc1 (centres unmarked) | 10.7
CC1=CC(C)(C)N2C(=O)C3(SCC(=O)N3c3ccc(O)cc3)c3cc(C)cc1c32 (centres unmarked) | 8.33
CC(C)(C)NC(=O)C(c1cccnc1)N(C(=O)c1ccc(Cl)nc1)C1CCCC1 (centres unmarked) | 8.62
CC(=O)c1ccc(NC(=S)N2CCCC(C(F)(F)F)C2)cc1 (centres unmarked) | 5.69
C/C(=N\NC(=O)CCCOc1ccc(Cl)cc1C)c1ccc(C)o1 | 9.02
COc1ccc(C2C(=O)N(C3CCCCC3)CC(=O)N2CCc2ccccc2)cc1OC (centres unmarked) | 4.94
CC(NCC(O)COc1ccc2ccccc2c1)c1ccccc1.O=C(O)C(=O)O (centres unmarked) | 8.5
CCn1cc(/C=C(\NC(=O)c2ccc(OC)c(OC)c2)C(=O)NCCN2CCOCC2)c2ccccc21 | 5.82
CC(=O)N1CCN(S(=O)(=O)c2ccc(S(=O)(=O)N3CCCC(C)C3)cc2)CC1 (centres unmarked) | 13.2
O=C(CSc1nc(N2CCCCC2)nc(N2CCCCC2)n1)Nc1nccs1 | 6.21
O=C(C1=C[C@@H](c2coc3ccccc3c2=O)C[C@@H](OCc2ccc(CO)cc2)O1)N1CCN(Cc2ccc3c(c2)OCO3)CC1 | -17.3
COc1ccc(CCNc2ncnc3c2nnn3Cc2ccccc2)cc1OC | 3.77

Compound | hERG current change (%, negative = inhibition) at 1uM [%]
COc1cccc(NC(=O)C(C)C)c1 | 10.8
CSc1nnc(-c2cnccn2)n1C | 14
CCCc1cc(=O)[nH]c2nnc(SCC(=O)NCc3ccc4c(c3)OCO4)n12 | 2.04
COC(=O)C1=C(C)N(CCCC(=O)O)C(=O)NC1c1ccccc1Cl (centres unmarked) | 3.9
CC(=O)OCC(=O)NCc1ccc2c(c1)OCO2 | -20.7
CCN(CC)S(=O)(=O)c1ccc(N=NC2=C(O)CCCC2=O)cc1 | 6.42
CNC(=O)COc1ccc(Nc2nnc(C)c3ccccc23)cc1.Cl | 15.3
COc1ccc(C(=O)Nc2ccc(C(=O)N3CCCCC3)cc2)cc1OC | 15.3
COc1ccc(CNC(=O)COC(=O)c2ccccc2C(=O)c2ccccc2)cc1 | 5.51
O=C(NCCC(c1ccccc1)c1ccco1)c1cccs1 (centres unmarked) | 11.3
O=C(NCc1nnc2c(C(F)(F)F)cc(Cl)cn12)C1CCCC1 | 8
CCN(CC)CCN1C(=O)C(O)=C(C(=O)c2cccs2)C1c1ccccn1 (centres unmarked) | 8.68
Cc1ccc(NC(=O)COC(=O)c2cc(Cl)ccc2[N+](=O)[O-])cc1 | 5.25
O=C(CNC(=S)N(Cc1ccccc1F)C1CCCCC1)NCCN1CCOCC1 | 7.76
Cc1ccnc(NC(=O)CCC(=O)c2cccs2)c1 | 14.6
O=C(O)c1ccc(N/N=C/C2=Cc3ccccc3OC2)cc1 | 11.6
CC(=O)/C=C/n1c(=S)oc2ccccc21 | 11.5
Cc1ccc(S(=O)(=O)N(C)C)cc1NC(=O)COC(=O)CCC1CCCC1 | 6.73
Cc1ccc(-c2cc(C(=O)NN)n[nH]2)o1 | 12.4
CC(C)(C)c1ccc(CCC2OCC(C[N+]3(C)CCOCC3)O2)cc1.[I-] (centres unmarked) | 12.7
CCCOc1ccc(/C=N/NC(=O)CN(c2ccc(OCC)cc2)S(C)(=O)=O)cc1 | -6.44
COc1ccc(S(=O)(=O)N2CCCCCC2)cc1C(=O)NCc1ccc(C)cc1 | 3.78
Cc1c(NC(=O)C(C)OC(=O)c2ccc(NC(=O)CC#N)cc2)c(=O)n(-c2ccccc2)n1C (centres unmarked) | 6.67

Compound | hERG current change (%, negative = inhibition) at 1uM [%]
COC(=O)c1cc(Cl)c(NC(=O)/C=C/c2ccc(Cl)cc2)cc1OC | 1.01
CC(Sc1nncn1C)C(=O)Nc1ccc(N2CCCCC2)cc1 (centres unmarked) | 12
CN1CCCN(Cc2nc(-c3cccc(C(F)(F)F)c3)no2)CC1 | -15.4
COc1ccccc1NC(=O)Nc1nn(C)c2cccc(OC)c12 | 9.38
O=C(Nc1ccc(F)cc1)Nc1cccnc1 | 1.11
COc1ccc2c(c1)sc(=N)n2CC(=O)Nc1cc(C)cc(C)c1 | 6.22
CC(=O)Nc1ccc(NC(=O)C(C)OC(=O)C(C)SCC(=O)Nc2ccc(C)cc2)cc1 (centres unmarked) | 15.6
Cc1ccc(-c2cnc3n2CCCCC3)cc1 | 6.39
O=C(CCNC(=O)c1ccccc1Cl)Nc1nc(-c2ccccc2Cl)cs1 | -11
Cc1cccc(N2CCN(C(=O)NC3CCCCC3)CC2)c1C | 8.24
CC(O)(CS(=O)(=O)c1ccc(Br)cc1)c1ccccc1 (centres unmarked) | 20.5
NS(=O)(=O)c1ccc(CNC(=S)NC2CC2)cc1 | 2.93
O=C(NNC(=O)C1CCCO1)c1ccc(Br)cc1 (centres unmarked) | 8.75
CC(=O)c1ccccc1NC(=O)COC(=O)CCCN1C(=O)c2cccc3cccc(c23)C1=O | 9.14
COc1cc(-c2nnc3sc(-c4cccs4)nn23)cc(OC)c1OC | 2.06
O=C(CSc1nc(O)c(-c2ccccc2)c(=O)[nH]1)N1CCOCC1 | 8.84
COc1ccc(NC(=O)C(=O)NNC(=O)C(C)Oc2ccc(Cl)cc2Cl)cc1 (centres unmarked) | 14.2
Cc1ccc(C(=O)OCC(=O)N2CCOCC2)cc1 | 11.9
O=C1/C(=C\c2ccncc2)SC(=S)N1C1CCCCC1 | 1.21
C/C(=N\NC(=O)C1(C)CC1(Br)Br)c1cccc(NC(=O)c2ccc(C)o2)c1 (centres unmarked) | 11.8
